# Laboratory results as given in PubChem BioAssay AID588855 (National Center for Advancing Translational Sciences (NCATS), 2011).
# Where “and” joins values, the source holds several entries; their conditions need not be identical. Equal values may be shown once. Among all 410,000 compounds or so, about 5,000 (1.2%) were called active. The inconclusive results got no clear call from the source; some entries with a clear call stand among them for comparison. Calls follow the shape of the dose curve; as a rule, active = well fitted inhibition curve with a large enough effect; inconclusive = small, poorly fitted or top-dose-only effect; inactive = no such curve, though single readings can be large or run the other way. A potency beside an inconclusive call is a rough fit, not a confirmed value.
# Assay: qHTS for Inhibitors of TGF-b; also: nearly all actives have a fitted effect of over 65% in size
# Details: HepG2 CAGA-GFP TGF-b/SMAD3 reporter, GFP fluorescence, 18 h, TGF-beta stimulated, 500 pg/mL final; series mostly up to 46.1 µM; activity, negative = inhibition: at the top concentration
# Outline: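 Cell-based qHTS in HEPG2 carrying a CAGA-GFP Smad reporter; compounds added before 500 pg/mL final TGF-beta, 18 h incubation at 37 degrees C, GFP fluorescence quantified per cell by imaging cytometry.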
# % is scaled to controls: 0 for no effect and ±100 for the full control effect; potency is read from the fitted curve at half-maximal effect; tags tell the direction and shape of the fitted curve.
Compound,"activity, negative = inhibition",Potency
CCOc1ccccc1-c1nc(-c2ccc(NC(=O)c3ccc(Br)o3)cc2)no1,inactive: -0.299%,–
Cc1nn(CCc2n[nH]c(=S)n2C)c(C)c1Br,inactive: 11.8%,–
CCOC(=O)c1cc(-c2ccccc2)n(CC(=O)NCc2ccccc2)c1C,–,"inconclusive: 35.5 µM [inhibitor, single point]"
CN1C(=O)[C@@H]2[C@H](C1=O)[C@@H]1C(=O)Nc3ccccc3C(=O)N1[C@@H]2c1ccc(F)cc1,–,"inconclusive: 6.31 µM [inhibitor, single point]"
CCc1nc(N)nc(N)c1-c1ccc(Cl)c([N+](=O)[O-])c1,–,"inconclusive: 0.794 µM [inhibitor, partial curve, poor fit]"
CC(C)CCc1noc(CN(C)CCC2CCOCC2)n1,inactive: 0.111%,–
Cc1cc(C)c(S(=O)(=O)N2CCCOC2CNC(=O)C(=O)NCc2ccccn2)c(C)c1 (stereo unspecified),–,"inconclusive: 35.5 µM [inhibitor, single point]"
O=c1c(Cc2ccc(F)cc2)c(O)ccn1Cc1ccc(Cl)cc1Cl,–,"inconclusive: 2.82 µM [inhibitor, full curve, poor fit]"
COc1ccc(-c2sc3cc(OC)c(OC)cc3c2C#CC2(O)CCCCC2)cc1,–,"inconclusive: 22.4 µM [inhibitor, single point]"
Cc1ccc(C)c(S(=O)(=O)N2CCN(C(=O)Cc3sc(C)nc3-c3ccc(F)cc3)CC2)c1,–,"inconclusive: 35.5 µM [inhibitor, single point]"
Cc1cc(C(=O)CSc2nnc(-c3cccs3)o2)c(C)n1-c1ccccc1,–,"inconclusive: 10 µM [inhibitor, partial curve]"
COc1ccc(C2/C=C\CN(C(=O)C3CCCCC3)C(C)C(=O)N2Cc2ccc(F)cc2)cc1 (stereo unspecified),–,"inconclusive: 17.8 µM [inhibitor, single point]"
CCCN(c1ccc(OCC)cc1)S(=O)(=O)c1ccc2c(c1)NC(=O)CO2,inactive: 3.46%,–
CC12CCC(=O)N1C(C(=O)Nc1cccc(S(=O)(=O)N3CCCCCC3)c1)CS2 (stereo unspecified),inactive: 10.2%,–
S=C(NCc1ccc(Cl)cc1)NC1CCCCC1,–,"inconclusive: 11.2 µM [inhibitor, partial curve, poor fit]"
CCC(=O)N(C1=C(NC)C(=O)c2ccccc2C1=O)C(C)C,–,"inconclusive: 14.1 µM [inhibitor, partial curve]"
COc1ccc(OC)c(NC(=O)CN2C(=O)CCc3cc(S(=O)(=O)N4CCCCC4)ccc32)c1,–,"inconclusive: 35.5 µM [inhibitor, single point]"
Cc1ccc(S(=O)(=O)Nc2cccnc2)cc1C,inactive: -29%,–
O=C(NC1CCCCC1)c1ccc2c(c1)N(Cc1ccc(Cl)cc1)C(=O)c1ccccc1S2(=O)=O,inactive: 0%,–
Cc1cccc(NC(=O)c2nc[nH]c2C(=O)N[C@@H](Cc2ccccc2)C(=O)OC(C)(C)C)c1,–,"inconclusive: 35.5 µM [inhibitor, partial curve, poor fit]"
CCSC1(SCC)N=C(N)C2(C#N)C(c3ccc(OC)c(OC)c3OC)C12C#N (stereo unspecified),–,"inconclusive: 35.5 µM [inhibitor, single point]"
OC(c1ccc(-c2ccccc2)cc1)c1ncc(-c2ccccc2F)[nH]1 (stereo unspecified),–,"inconclusive: 25.1 µM [inhibitor, single point]"

Compound,"activity, negative = inhibition",Potency
O=c1c(Cl)c(Cl)cnn1Cc1nnc(-c2ccc(Cl)cc2)o1,–,active: 12.6 µM
COc1cccc(C(=O)N/N=C/C(Br)=C/c2ccccc2)c1,–,"inconclusive: 25.1 µM [inhibitor, single point]"
NC(=O)C1CCN(C(=O)CN2C(=O)c3ccccc3S2(=O)=O)CC1,inactive: 17.5%,–
CCc1cccc(NC(=O)Cn2nc(-c3cc(C)ccc3C)ccc2=O)c1,–,"inconclusive: 31.6 µM [inhibitor, partial curve, poor fit]"
COc1ccc(OC)c2c1C(=O)C(Cl)=C(Cl)C2=O,–,active: 3.16 µM
Cc1ccc(S(=O)(=O)Nc2ccccc2/C=N/c2nc3ccccc3n2C(C)C)cc1,–,"inconclusive: 22.4 µM [inhibitor, single point]"
COc1cccc(N2CC(NC(=O)c3ccc(S(=O)(=O)N4CCCCC4)cc3)CC2=O)c1 (stereo unspecified),inactive: -24.9%,–
COc1ccc(-c2nc3ccccc3o2)cc1NC(=O)COc1ccc(C(C)(C)C)cc1,inactive: 1.5%,–
O=[N+]([O-])c1ccc(C(c2sc3nc(-c4ccco4)nn3c2O)N2CCN(c3cccc(Cl)c3)CC2)cc1 (stereo unspecified),–,"inconclusive: 25.1 µM [inhibitor, single point]"
O=C(Cc1ccccn1)c1ccc(Cl)cc1,–,"inconclusive: 35.5 µM [inhibitor, single point]"
Cc1ccc(C)c(Cn2nc(-c3cc(C)ccc3C)ccc2=O)c1,–,"inconclusive: 15.8 µM [inhibitor, partial curve, poor fit] and inconclusive: 35.5 µM [inhibitor, single point]"
Cc1ccccc1OCC(O)CN(CCO)Cc1ccccc1 (stereo unspecified),inactive: -0.309%,–
CCc1ccc(Nc2cnn(-c3nc4ccccc4s3)c(=O)c2Cl)cc1,–,"inconclusive: 15.8 µM [inhibitor, single point]"
CCOC(=O)CCCc1ccc(/C(C)=N/NC(N)=S)cc1,inactive: -0.913%,–
O=C(Nc1ccc2c(c1)OCCO2)C(c1ccnc2ccccc12)N1CCN(c2ccc(F)cc2)CC1 (stereo unspecified),–,"inconclusive: 12.6 µM [inhibitor, partial curve]"
CN(C)CCn1c2c(c(SCC(=O)Nc3ccc(F)cc3F)nc1=O)CCC2,–,"inconclusive: 3.55 µM [inhibitor, single point]"
CN(Cc1ccccc1)C(=O)c1ncn(C)c1C(=O)N(C)Cc1ccccc1,–,"inconclusive: 5.62 µM [inhibitor, single point]"
O=C(NCCc1ccccc1)c1ccc(CSc2nc3ccncc3n2Cc2ccc(F)cc2)cc1,–,"inconclusive: 12.6 µM [inhibitor, single point]"
CCc1ccc2oc(C(=O)Nc3sc4c(c3C(=O)NC)CCCC4)cc(=O)c2c1,inactive: 22.9%,–
CCCCOC(=O)c1cccc(NC(=O)c2cc3ccccc3o2)c1,–,"inconclusive: 17.8 µM [inhibitor, partial curve, poor fit]"
COc1ccc(C2CC(c3ccccc3F)=NN2c2ccc(S(N)(=O)=O)cc2)cc1 (stereo unspecified),–,"inconclusive: 35.5 µM [inhibitor, single point]"
COc1ccc(CNC(=S)Nc2cccc(OC)c2)cc1,inactive: 0.691%,–

Compound,"activity, negative = inhibition",Potency
CN(CC(=O)Nc1ccc(Cl)c(C(F)(F)F)c1)C(=O)CCCNC(=O)c1ccc(Cl)cc1,–,"inconclusive: 35.5 µM [inhibitor, single point]"
CCOc1cc(/C=N/N=C(\N)c2nonc2N)cc(Br)c1OCc1cccc2ccccc12,–,"inconclusive: 22.4 µM [inhibitor, single point]"
COc1cccc(CNCCSc2nnnn2C)c1OCc1ccccc1F,–,"inconclusive: 0.355 µM [inhibitor, full curve, poor fit]"
O=C(COc1ncnc2ccccc12)NCCc1ccc(F)cc1,–,"inconclusive: 5.62 µM [inhibitor, single point]"
O=C(NC(=O)N1CCN(C(c2ccccc2)c2ccccc2)CC1)c1ccccc1,–,"inconclusive: 35.5 µM [inhibitor, single point]"
O=C(Nc1ncccn1)c1ccc(Cl)c([N+](=O)[O-])c1,–,"inconclusive: 35.5 µM [inhibitor, single point]"
Cc1ccc(-c2nc(CS(=O)(=O)CC(=O)NC3CCCCCC3)c(C)o2)cc1,–,"inconclusive: 10 µM [inhibitor, partial curve, poor fit]"
COc1ccc(OC)c(-c2c3cc(O)c(=O)cc-3oc3cc(O)c(O)cc23)c1,–,"inconclusive: 35.5 µM [inhibitor, single point]"
Cc1ccc(NC(=O)c2ccc(N3CCOCC3)c([N+](=O)[O-])c2)cc1S(=O)(=O)N1CCOCC1,inactive: -8.66%,–
OC(c1cc(Cl)cc(Cl)c1)c1ncc(-c2ccccc2C(F)(F)F)[nH]1 (stereo unspecified),–,"inconclusive: 35.5 µM [inhibitor, single point]"
COc1cc(Nc2nc3ccc(Cl)cc3n3cnnc23)cc(OC)c1OC,inactive: 39.4%,–
O=C1/C(=C/c2cccnc2)SC(=S)N1c1ccc(F)cc1,inactive: -3.36%,–
O=C(O)C1(Cc2nc3ccccc3[nH]2)CCCC1,inactive: -15.6%,–
Cn1nnc2c[n+](CC(=O)c3ccc4ccccc4c3)cc(Br)c21,–,"inconclusive: 35.5 µM [inhibitor, single point]"
CCC(=O)Nc1ccc2nc(SCCOc3ccc(C)cc3)sc2c1,–,"inconclusive: 6.31 µM [inhibitor, single point]"
CCS(=O)(=O)c1ncc(N(Cc2ccc(F)cc2)Cc2ccco2)c(C(=O)Nc2cc(C)ccc2C)n1,inactive: 1.57%,–
S=C(Nc1ccccc1)Nc1ccc(Cl)cn1,–,"inconclusive: 20 µM [inhibitor, single point]"
O=C(COC(=O)C1CC(=O)N(Cc2ccccc2)C1)Nc1ccccc1F (stereo unspecified),–,"inconclusive: 1.26 µM [inhibitor, partial curve, poor fit]"
O=C(Nc1ccc(C(=O)N2CCOCC2)cc1)Nc1cccc(Cl)c1,–,"inconclusive: 25.1 µM [inhibitor, single point]"
CCCn1c(NCc2ccc(N(CC)CC)cc2)nc2ccccc21,–,"inconclusive: 22.4 µM [inhibitor, single point]"
CC(=O)Nc1ccc(OS(=O)(=O)c2ccc(Cl)cc2)cc1,–,"inconclusive: 35.5 µM [inhibitor, single point]"
CCOC(=O)C1=NOC(C(=O)NN(C)c2ncc(C(F)(F)F)cc2Cl)C1 (stereo unspecified),–,"inconclusive: 17.8 µM [inhibitor, single point]"
